# Laboratory results: the supplement of paper PMC3334620
# In all, about 33,000 sequences were measured (“E-score (-0.5 to 0.5)”: median about -0.012, highest 2% from about 0.27 on). Some of the results follow.
# Target: T1, Vhr1 (UniProt P40522)
# T1 sequence: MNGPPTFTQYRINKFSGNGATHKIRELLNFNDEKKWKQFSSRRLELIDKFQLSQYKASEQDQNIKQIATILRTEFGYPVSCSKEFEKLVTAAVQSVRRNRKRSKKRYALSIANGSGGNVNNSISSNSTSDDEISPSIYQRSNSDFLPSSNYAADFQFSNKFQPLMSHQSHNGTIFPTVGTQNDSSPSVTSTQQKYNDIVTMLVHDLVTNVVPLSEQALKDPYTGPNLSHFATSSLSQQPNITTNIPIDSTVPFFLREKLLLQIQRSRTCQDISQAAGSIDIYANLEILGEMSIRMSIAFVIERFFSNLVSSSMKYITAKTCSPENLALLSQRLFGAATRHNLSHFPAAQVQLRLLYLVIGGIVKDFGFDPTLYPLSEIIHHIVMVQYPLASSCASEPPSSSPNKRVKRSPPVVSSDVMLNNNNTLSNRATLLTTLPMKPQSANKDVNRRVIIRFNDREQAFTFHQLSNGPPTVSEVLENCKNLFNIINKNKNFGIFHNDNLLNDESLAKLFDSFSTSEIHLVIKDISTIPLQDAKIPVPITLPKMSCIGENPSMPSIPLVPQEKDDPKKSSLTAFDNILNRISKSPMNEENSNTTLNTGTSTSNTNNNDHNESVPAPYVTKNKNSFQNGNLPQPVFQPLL
# Test: PBM E-score (8-mer binding enrichment) (E-score (-0.5 to 0.5)); higher = stronger / more preferred TF binding; most listed sequences are background and not binding sites
# Conditions: protein concentration: 200 nM; construct: GST-full length
# Method in brief: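 PURExpress in vitro transcription/translation supplied GST-tagged yeast transcription factors, either full-length or DNA-binding domain. Applied at about 100-200 nM to universal all-10-mer Agilent arrays double-stranded by primer extension, the bound protein was detected with fluorescent anti-GST. E-scores, modified Wilcoxon-Mann-Whitney statistics, were given by the Universal PBM Analysis Suite to ungapped eight-base words pooled with their reverse complements after masliner normalisation.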
row,Sequence,PBM E-score
1,CCACCGAG,0.216
2,GCGCGAGC,-0.032
3,CATGAAGA,-0.0351
4,AAGGGAGT,-0.0334
5,GTCCTATA,-0.265
6,AGACGAAG,-0.0754
7,AAATGCAA,-0.233
8,CGACGATA,0.0215
9,AACGTGGA,-0.0551
10,ACGCAAAG,-0.123
11,AAAGTCCT,-0.203
12,GTGTCTAA,-0.139
13,ACGACTTG,-0.0454
14,CTGCTTAC,-0.119
15,AGCCCACG,-0.0366
16,ACAACAGC,-0.0783
17,AGTTCTGA,-0.201
18,CGCGTATC,0.143
19,AGGTAATC,0.104
20,ATTCCGGG,0.0193
21,AAAGGGCA,-0.0157
22,ATAAGACA,-0.0876

row,Sequence,PBM E-score
1,CAACTTCA,-0.138
2,TGGGAACA,0.0218
3,GCACTACC,-0.0106
4,GAATGAAC,-0.0436
5,AGGTAACA,0.109
6,GCAATCCC,0.0389
7,AAGCAGCG,0.0391
8,ACAGTCGA,-0.0382
9,AAAAGAAA,-0.312
10,CAGAACGC,-0.0689
11,GAACCCGA,0.0438
12,CCCTCGGC,-0.0968
13,GAGTCTCC,0.254
14,CAAATCTA,-0.0242
15,GCAAACAC,0.0615
16,CTGTTCTC,-0.0559
17,CGCGAACC,-0.035
18,CGACAAAG,-0.171
19,AAGTTTTC,-0.168
20,ATTCCTGC,0.00809
21,TCACTTAA,0.0704
22,ACCATTAG,0.0787

row,Sequence,PBM E-score
1,GTAATACA,0.185
2,ATATTGAC,0.00562
3,AAGCCCCT,-0.186
4,GTTGTCAA,-0.031
5,GGAATACC,-0.226
6,AGAAAACC,-0.0835
7,GCTATTAA,0.0113
8,CCCGGTCA,0.13
9,GCACATGA,0.111
10,GACGCGGC,0.109
11,CAAGCGGC,0.127
12,ACTTGACA,-0.168
13,CTCTTTAC,-0.116
14,CGACGTTA,0.0703
15,ACTACGGC,0.0515
16,GAGAGACC,-0.00022
17,ACTCGAAA,-0.0152
18,ACGTCCGC,-0.105
19,TACATCTA,0.0469
20,ACAACCGT,-0.184
21,ACATGGCC,-0.0801
22,ACAACCTA,0.00737

row,Sequence,PBM E-score
1,TTGACCAA,0.00092
2,CGAAGGAG,-0.0105
3,ACGAGTCG,0.322
4,CGTAACAA,-0.0651
5,ATAAACTA,0.0187
6,ATTCTGTC,-0.0706
7,ACATAGCT,-0.216
8,GTCTCTGA,-0.0341
9,CGCTTTAA,-0.199
10,AATGTCAC,0.0925
11,CTCGTCCC,-0.0539
12,CTCCAGCC,-0.0218
13,ATTATTTG,0.0696
14,ACCTTTCG,-0.225
15,CTTCCCAA,-0.199
16,GATATAAC,0.0122
17,GTGGGGGA,-0.279
18,ATCACCCG,0.25
19,CGATTGGC,-0.0714
20,AAGTAAGC,-0.34
